Results are given in words; binding and its absence hold for the method and conditions named. In cells and extracts the contact can be indirect. Some binding calls cover weakened binding; strength is not graded here. For some assays here: Sequences can lack the tags named with a protein.
Legend:
[1] = target: T1, SKAP1 (endogenous, Jurkat T-cells) (human (endogenous in Jurkat)) (UniProt Q86WV1); assay: proximity ligation; Duolink in situ PLA with anti-PLK1 and anti-SKAP1 on endogenous proteins in Jurkat cells
T1 sequence: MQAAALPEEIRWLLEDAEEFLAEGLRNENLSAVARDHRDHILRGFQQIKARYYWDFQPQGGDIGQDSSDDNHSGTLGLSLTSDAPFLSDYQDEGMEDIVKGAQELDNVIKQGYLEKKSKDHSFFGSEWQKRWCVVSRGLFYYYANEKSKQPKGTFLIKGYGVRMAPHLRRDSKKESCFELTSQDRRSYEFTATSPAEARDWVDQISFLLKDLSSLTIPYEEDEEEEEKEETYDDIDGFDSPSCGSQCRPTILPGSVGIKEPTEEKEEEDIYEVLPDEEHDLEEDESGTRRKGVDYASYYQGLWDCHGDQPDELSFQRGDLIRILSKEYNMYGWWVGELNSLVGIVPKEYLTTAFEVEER

Chains of the proteins cited; added tags and fusions are not shown.
UniProt Q7Z5R6: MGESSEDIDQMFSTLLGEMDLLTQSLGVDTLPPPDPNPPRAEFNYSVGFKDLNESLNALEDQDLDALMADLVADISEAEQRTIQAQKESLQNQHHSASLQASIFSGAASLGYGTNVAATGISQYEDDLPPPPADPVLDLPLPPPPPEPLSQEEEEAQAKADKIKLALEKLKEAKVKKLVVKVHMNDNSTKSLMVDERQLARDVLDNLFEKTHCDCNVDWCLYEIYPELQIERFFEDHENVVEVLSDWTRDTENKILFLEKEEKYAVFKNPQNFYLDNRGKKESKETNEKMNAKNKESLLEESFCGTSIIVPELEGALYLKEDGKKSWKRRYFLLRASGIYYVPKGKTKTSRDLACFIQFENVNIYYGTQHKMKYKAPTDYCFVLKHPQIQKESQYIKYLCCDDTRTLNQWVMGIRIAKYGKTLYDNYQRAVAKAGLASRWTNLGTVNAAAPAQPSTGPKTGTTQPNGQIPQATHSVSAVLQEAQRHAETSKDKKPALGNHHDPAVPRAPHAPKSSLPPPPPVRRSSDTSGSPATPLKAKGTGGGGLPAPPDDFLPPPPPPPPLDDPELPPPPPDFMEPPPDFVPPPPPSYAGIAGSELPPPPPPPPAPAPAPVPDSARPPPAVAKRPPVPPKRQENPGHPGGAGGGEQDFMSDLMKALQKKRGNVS

[2] = target: T1, SKAP1 (endogenous, Jurkat T-cells) (human (endogenous in Jurkat)); assay: co-IP; endogenous proteins from Jurkat T-cells, Triton X-100 lysate, anti-SKAP1 or anti-PLK1 with protein G-Sepharose, blotting; also anti-SKAP1 precipitation 0-8 hours after release from 150 nM nocodazole (16 hours)
GFP-tagged SKAP1 (human) = target: T2, GFP-tagged SKAP1 (human) (UniProt Q86WV1); assay: co-IP; 293T cells co-expressing Flag-tagged PLK1, NKD or PBD with GFP-SKAP1; anti-SKAP1 precipitation and, for PBD, anti-Flag precipitation; blotting
T2 sequence: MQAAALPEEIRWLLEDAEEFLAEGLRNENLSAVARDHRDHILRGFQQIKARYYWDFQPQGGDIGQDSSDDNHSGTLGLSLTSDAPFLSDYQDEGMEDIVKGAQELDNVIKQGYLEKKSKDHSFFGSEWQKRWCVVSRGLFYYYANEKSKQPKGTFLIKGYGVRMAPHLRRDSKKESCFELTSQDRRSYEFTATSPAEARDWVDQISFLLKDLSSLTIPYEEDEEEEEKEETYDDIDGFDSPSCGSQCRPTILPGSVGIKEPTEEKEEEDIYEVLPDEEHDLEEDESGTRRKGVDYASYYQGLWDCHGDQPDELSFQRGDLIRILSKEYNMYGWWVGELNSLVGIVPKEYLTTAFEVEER

[3] = target: T3, GST-SKAP1 WT (full-length) (human) (UniProt Q86WV1); assay: pull-down; GST full-length SKAP1 WT and S31A used to co-precipitate Flag-PLK1 expressed in 293T cells; only the target purified
T3 sequence: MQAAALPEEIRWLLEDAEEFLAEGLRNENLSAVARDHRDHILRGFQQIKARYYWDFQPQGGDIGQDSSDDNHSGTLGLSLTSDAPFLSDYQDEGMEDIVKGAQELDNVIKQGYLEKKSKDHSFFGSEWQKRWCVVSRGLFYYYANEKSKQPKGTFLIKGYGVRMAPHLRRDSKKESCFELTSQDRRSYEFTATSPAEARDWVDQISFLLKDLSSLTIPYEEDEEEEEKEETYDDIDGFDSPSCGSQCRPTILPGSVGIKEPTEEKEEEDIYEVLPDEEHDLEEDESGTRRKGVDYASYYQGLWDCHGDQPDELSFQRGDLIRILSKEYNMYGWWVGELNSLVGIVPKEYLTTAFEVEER

[4] = target: T4, GST-SKAP1-SK (SK region; residues 209-285) (human) (UniProt Q86WV1); assay: pull-down; GST fusion proteins of regions of SKAP1 used to co-precipitate endogenous PLK1 from lysates of Hela cells; only the target purified
T4 sequence: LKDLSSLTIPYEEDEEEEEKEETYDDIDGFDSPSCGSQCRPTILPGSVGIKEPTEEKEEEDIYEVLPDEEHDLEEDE

[5] = target: T5, GST-SKAP1-N (N-SKAP1; residues 1-104) (human) (UniProt Q86WV1); assay: as above
T5 sequence: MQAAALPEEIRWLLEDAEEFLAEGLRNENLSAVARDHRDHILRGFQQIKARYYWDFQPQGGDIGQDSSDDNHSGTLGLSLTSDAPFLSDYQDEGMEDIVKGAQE

GST-SKAP1-SH3 (human) = target: T6, GST-SKAP1-SH3 (human) (UniProt Q86WV1); assay: as above
T6 sequence: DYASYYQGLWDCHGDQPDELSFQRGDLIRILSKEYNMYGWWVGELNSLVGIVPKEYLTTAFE

Myc-tagged PLK1 = Myc-tagged PLK1 (UniProt P53350); assay: co-IP; Hela cells co-transfected with FLAG-tagged PLK1, RIAM, LAT or SKAP1 and Myc-tagged PLK1; anti-Myc precipitation, blotting
[6] = target: Polo-like kinase 1 (PLK1) (endogenous, Jurkat T-cells) (human (endogenous in Jurkat)) (UniProt P53350); assay: co-IP; endogenous proteins from Jurkat T-cells, Triton X-100 lysate, anti-SKAP1 or anti-PLK1 with protein G-Sepharose, blotting; also anti-SKAP1 precipitation 0-8 hours after release from 150 nM nocodazole (16 hours)

Polo-like kinase 1 (PLK1) (endogenous, Jurkat T-cells) (from UniProt P53350 1-603) (enzyme)
binding [1]: binds | binding [2]: binds

Flag-tagged PLK1 WT (from UniProt P53350 1-603) (enzyme)
binding (GFP-tagged SKAP1 (human)): binds | binding [3]: binds

Polo-like kinase 1 (PLK1) (endogenous, Hela lysate) (from UniProt P53350 1-603) (enzyme)
binding [4]: no binding | binding [5]: binds | binding (GST-SKAP1-SH3 (human)): no binding

RIAM tagged with FLAG (from UniProt Q7Z5R6 1-666)
binding (Myc-tagged PLK1): no binding

B1: SKAP1 (endogenous, Jurkat T-cells) (protein, UniProt Q86WV1 1-359)
chain: MQAAALPEEIRWLLEDAEEFLAEGLRNENLSAVARDHRDHILRGFQQIKARYYWDFQPQGGDIGQDSSDDNHSGTLGLSLTSDAPFLSDYQDEGMEDIVKGAQELDNVIKQGYLEKKSKDHSFFGSEWQKRWCVVSRGLFYYYANEKSKQPKGTFLIKGYGVRMAPHLRRDSKKESCFELTSQDRRSYEFTATSPAEARDWVDQISFLLKDLSSLTIPYEEDEEEEEKEETYDDIDGFDSPSCGSQCRPTILPGSVGIKEPTEEKEEEDIYEVLPDEEHDLEEDESGTRRKGVDYASYYQGLWDCHGDQPDELSFQRGDLIRILSKEYNMYGWWVGELNSLVGIVPKEYLTTAFEVEER
binding [6]: binds

B2: SKAP1 tagged with FLAG (protein, UniProt Q86WV1 1-359)
chain: MQAAALPEEIRWLLEDAEEFLAEGLRNENLSAVARDHRDHILRGFQQIKARYYWDFQPQGGDIGQDSSDDNHSGTLGLSLTSDAPFLSDYQDEGMEDIVKGAQELDNVIKQGYLEKKSKDHSFFGSEWQKRWCVVSRGLFYYYANEKSKQPKGTFLIKGYGVRMAPHLRRDSKKESCFELTSQDRRSYEFTATSPAEARDWVDQISFLLKDLSSLTIPYEEDEEEEEKEETYDDIDGFDSPSCGSQCRPTILPGSVGIKEPTEEKEEEDIYEVLPDEEHDLEEDESGTRRKGVDYASYYQGLWDCHGDQPDELSFQRGDLIRILSKEYNMYGWWVGELNSLVGIVPKEYLTTAFEVEER
binding (Myc-tagged PLK1): binds

B3: LAT tagged with FLAG (protein, UniProt O43561 1-262)
chain: MEEAILVPCVLGLLLLPILAMLMALCVHCHRLPGSYDSTSSDSLYPRGIQFKRPHTVAPWPPAYPPVTSYPPLSQPDLLPIPRSPQPLGGSHRTPSSRRDSDGANSVASYENEGASGIRGAQAGWGVWGPSWTRLTPVSLPPEPACEDADEDEDDYHNPGYLVVLPDSTPATSTAAPSAPALSTPGIRDSAFSMESIDDYVNVPESGESAEASLDGSREYVNVSQELHPGAAKTEPAALSSQEAEEVEEEGAPDYENLQELN
binding (Myc-tagged PLK1): no binding

Source: publication PMC6639320
